We go through 29 molecules from the supplement of paper PMC12632987.

Sequences and labels used below:
B1: GBRAP_160_4263 (protein)
chain: SEELEELIKDLEEDREEILSLIDEISAEEAKTFAVVELGSHLLEAIDLEIVTDEEEEELAKIIDDLEAELKANENASKEEIKAIITKHYDKFKEILEKSK
B2: GBRAP_125_3015 (protein)
chain: SREELAAAMGRIARALGFSEGDVAELERLTLEHGVKGTLIALALAEGDEELADLLEKLSEEEVAAVVLEAAAELAAHPDLTPEEVRALLLRLAREALAAS
B3: GBRAP_177_5013 (protein)
chain: SVVEQAEAALDDPEALLALLESLDVSELSREEVLEVIRIAARAIEKHGYREELVNALAKLMVAAMKEHGISEAELFAIVIEEVDADTADKIWEKVLELED
B4: GBRAP_80_6785 (protein)
chain: MEEEIEKKIKEIEKEDPEVAKVVREIVELLREVGVPLEIILELVEDFLDALKLPKETRLKIAKETLKFAEELAEEKDRLSPEDIGRLVLAEALTLIELAE
B5: GBRAP_160_4576 (protein)
chain: SPELEKLIEEINELTEEALEWLEDETYEQRLAIVRVLGGDILLLLEENPAVSDELEDEAAKIWDELIATIDANPDLTAEEIKELVRKATEKIIELIKKEA
B6: GBRAP_160_4524 (protein)
chain: SEHLEKKKELLDEAAEEAIRLIKGESAEQRAVIVDGEFGALAMEFASDPNSTDEEVDVVLDARDELVATILANPDLTDEEVAALIEEARERIKEELEKLH
B7: GBRAP_160_4851 (protein)
chain: SEKLKKMLELIEEAEKFIEELVDEVDIETLAAFFRAEVGEVIYYMETELGASDELLDRIDEIADETVAELLANPDLTPEERKALIRKALEEMREAVKELS
B8: GBRAP_160_4559 (protein)
chain: EEERKKGIEEIKKILEEAIELMKELSPEEALTLARGAFGEVLMLLFSSPVFTDEEIDKAGEIADEAEKALEAALDASREEVVELAKKYAEKLIKELEKLA
B9: GBRAP_128_3514 (protein)
chain: SMEEAVARVDELMAAVGAADAEEARRLTREIVELIAANDDETAEAMADRAIELLPKLSQEKLEIVADTLREQRPSLDPYKANLVADIQVEALNLAVEQEE
B10: GBRAP_128_3164 (protein)
chain: SVEKVKEETEKLMEEIINSSLEEAKKLVEELFELLGKVNDEEREAAVEVIEKNLPKLSKEKLDILADVFREKRPELDPYGQELVNGIIVEALNEAEELEE
B11: GBRAP_160_4424 (protein)
chain: GSLVERVDRIMEEGRELVVELVEEGRREEALAAARVTAGEVLLEVDSDESVSEEAREKVDAILDALIAELEANRDASPEEVRAMLERARAEVLAVLEEYT
B12: GBRAP_78_6634 (protein)
chain: EIEELLEKAGEKLAEAAKLALSLPLDLRAEVLDHLSDALVDIEEAEENGKLEEELKEAIESTEKAIKLLEENASEKTEPILKLVKEALKLLKKALELVKK
B13: GBRAP_14_3798 (protein)
chain: MEEREKEIEEIAEETKEEIEEIMEEADEEVREEVLELVEEARKTIIEKKLNEDEAAKLNDETVAKIAEILEEADPEVRAQVLATVAIHGGEAILEIAELE
B14: GBRAP_11_2755 (protein)
chain: KKEKLKEMSKLAEELAKLVEKLLKEGVDNEELIKEAEKTLKELSELTKKYGDEDDKKLVKIAEELFKKALEDKENREEYFKELLAVARVLAGNYLLDYEE
B15: GBRAP_160_4765 (protein)
chain: SEELEKLKEEIEEIFDEHIELLKEVPREEAVTVVRGAMGEVLMLAMSSEAVSDELEEEIGKIMDEAEERAEANKDAPVEVHIEILEEAREEILSLLEKEI
B16: GBRAP_128_3280 (protein)
chain: PNPEVVARARDFVDRIAASDPEEARRLAEEFAAWLGSISTEEAAQAVEVVEERLHLLSVEHLEILADVLEEQRPLFDPEKANLVADLQVAALNEAEEKEE
B17: GBRAP_128_3281 (protein)
chain: ANPEIVKKAKEFVEKIKNSNPEEARKLAEEFAEWLGSISLEEAEQAVEVVEERLHELSVEHLEILADVLREKRDEYDEGKANLVADLEVAALNEAVEKEE
B18: GBRAP_125_3067 (protein)
chain: GEEEDLEDLAYIAKALGLSEEDVKELVELARKSSIKNTLYALFLAEGYEEVAELVEKITEEQAKEVLRRVKEELEKNPELSKEEVVELVKEELEKAIKEQ
B19: GBRAP_139_3761 (protein)
chain: DEREEKVKKAAELTKKLVAGDEEAAKELAELAKSVDDETLKAIADAIRETLKGQDPDTIEKARDLLEKELKEVGASEETILLIEGAIDAAEAEAIAAELA
B20: GBRAP_160_4303 (protein)
chain: SEEFEELMKEIKEIAEEALKMIEGQTKEEQKTIVKVALGEIILLADESEAISDELEEEIDKIADEAEEYLDANPDLTEEEIKELLKEAVEKILELIKERS
B21: GBRAP_160_4751 (protein)
chain: SEALKKLKEEVKKIFEEGIEMLKEVPAEEAPTVLRGVMGEVLMEVFSSEAASDELEEEVGEVVDKAEAEAAANANAPVEYHIELLEKAKKEILEIIEKEI
B22: GBRAP_184_5341 (protein)
chain: SILEAHIEGKSLEEIVAEAGKYLKEAAAKGAALLISIDASGFSDEELVKLVEEIGKLAKEYGVKDLTLGLDKEVDEETADKLLEVADKYGIRLTVALKDE
B23: GBRAP_160_4850 (protein)
chain: DEKLKKVEEELNKARDFVLSLVPEVTVEQLAKFYETEISSVLLELYEKGYINEEAEDAGLELAKEARAALLAAADATPEEIRALIEKSTAEMIEKIKELL
B24: GBRAP_83_6894 (protein)
chain: MEEITVVANSDNIEEAFKIAIDLSKEEGYKVSIEAIITPESVEKLKKSFEELAKEKIDVELTIYAEGMTEEEAEKLKKELEEIAKKYGVNVKIEVILVEP
B25: GBRAP_160_4641 (protein)
chain: SPSLEELKKIVEEGTKIVLEYIDEGNLENAIAALRVMVGEVVMEMVEDPRFSDEDVDEIAELGDKAVKELEAAKGASKEELKKLVEKAAEALKKKLEEFY
B26: GBRAP_128_3342 (protein)
chain: IDEERLEEVRELAEAMIEADDEEAEELARELMELLVTLSLEEVEEAAKIIRELLPKLSAEHLEILADELREYRPLFSPEKALIVNDLEVEALNEAVEKEE
B27: GBRAP_11_2849 (protein)
chain: KKELLKKIAEKAEELIKLLEELKEKGVDDEELLKKVREKMEELKKLVEKAKDESLIKIAEIAKENIEKIETDPSNKEEYVNNAIAAVRTLKGQVLLEIEE
B28: GBRAP_184_5257 (protein)
chain: KTLEETIEVSNVEELKKKLDEIGKKALEEKADVVILLEVEKLTKEMIDALFEKIKEMKAKGYKGKVTIGITADLTEEMIDYVLEKADEAGVNVALAIPEE
B29: GBRAP_26_5466 (protein)
chain: MEEAFKKAREKFDEVAAKLPNPTAAAALRAEADTELEELEERIEAGEDIEKAVKEAKEEFLKEAREILTDAGLPEELIEATLKEFEEIFKELEKELKKEQ

In all, about 4,500 sequences were measured (“median log2 fold change of GCK-ALFA target abundance (FLAG IP / Myc IP barcode read proportion)”: median about 0.078, lowest 2% from about -0.6 on). The list shows a part of the results.

GABARAP, O95166, sequence (O95166 whole entry, the tested form may be a part): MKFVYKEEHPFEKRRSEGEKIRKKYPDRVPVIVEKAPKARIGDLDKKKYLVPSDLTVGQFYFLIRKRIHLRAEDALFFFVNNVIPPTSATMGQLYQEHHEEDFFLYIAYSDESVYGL

This experiment addresses GABARAP, O95166. Description: median log2 fold change of GCK-ALFA target abundance (FLAG IP / Myc IP barcode read proportion) (log2 ratio); each designed protein is fused to an ALFA-tag nanobody in HEK293 cells to bring the named protein to FLAG-tagged glucokinase (GCK); Myc marks an untargeted standard; higher = target protein stabilised (more abundant). The note with it: target protein: 3xFLAG-MCP-GCK-ALFA reporter; HEK293 landing pad (RPLP). The method, boiled down:
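The readout is target abundance, the per-binder median log2 ratio of FLAG to Myc barcode read proportions. It came from HEK293 landing-pad cells carrying a recombined ALFA-nanobody-fused binder library, induced with 2 μg mL^−1 doxycycline and transfected with a plasmid for a FLAG-tagged target and a Myc-tagged standard. After 48 h, lysates were immunoprecipitated with anti-FLAG and anti-Myc, and circular RNA barcodes were reverse transcribed, amplified and sequenced. Each barcode needed a proportion of at least 10^−7 in both replicates and each binder at least 3 barcodes per replicate, a pseudocount of 10^−6 was added, and the replicates were pooled.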
For B1, the “median log2 fold change” value was -0.132.
Consider B2, for which the “median log2 fold change” value was -0.0109.
As to B3, the “median log2 fold change” value amounted to 0.19.
Regarding B4, the “median log2 fold change” value worked out at 0.222.
For B5 the value was -0.142.
As for B6, the “median log2 fold change” value is -0.108.
For B7 the value was -0.387.
For B8 the value was 0.0897.
In the case of B9 it was 0.176; in that of B10, 0.388.
As to B11, the “median log2 fold change” value came out at 0.208.
For B12 the value was 0.149; for B13, 0.252.
In the case of B14 it was 0.189; in that of B15, 0.134; in that of B16, 0.21.
Take B17: the “median log2 fold change” value came to 0.0787.
For B18 the value was 0.04.
Consider B19, for which the “median log2 fold change” value is 0.298.
In the case of B20 it was -0.126; in that of B21, -0.117; in that of B22, 0.25.
Consider B23, for which the “median log2 fold change” value came out at 0.0425.
For B24 the value was 0.16; for B25, 0.217; for B26, -0.176.
As to B27, the “median log2 fold change” value was 0.662.
In the case of B28 it was 0.0132; in that of B29, 0.217.
